The source gives no read counts; variants with many changes may rest on few reads.
B1: OR4K15 (parent)
chain: GUUAACGGUCAUAGGCCAUGGAAACUAGGAGCACCAUUUCGCUGCCAGUGAAGAAAUGAACAAAGAAAAUCUGGGCCAGGCAGGCAUCAAAAGAAAUAGUCUUGCGCUCAACCAGAAAGUCUGUAAUCAUUUUAAGGGUA

Variants of: B1
Assay: self-cleavage, relative activity (ratio to wild type); higher = more cleavage; in vitro, sequencing; the parent is a self-cleaving ribozyme

| Variant | self-cleavage |
| --- | --- |
| GUUAACGGCCAUUGGCCAUGGAAACUAGGAGCACCAUUUCGCUGCUGGUGAAGAGAUGAACAAAGAAAGUCUGGGCCAGGCAGGCAUCAAAAGAAAUAGUCUUGCGCUCAACCAGAAAGUCUGUAACCAUUUUAAGGGUA [U9C A13U C46U A47G A55G A69G U127C] | 0.73 |
| GUUAACGGCCAUUGGCCAUGGAAACUAGGAGCUCCAUUUCGCUGCCAGUGAAGAAAUGAACAAAGAAAAUCUGGGCCAGGCAGGCAUCAAAAGAAAUAGUCAUGCGCUCAACCUGAAAGUCUGUAAUCAUCUUAAGGGUA [U9C A13U A33U U102A A114U U131C] | 0 |
| GUUAACGGCCUUAGGCCAGGGAAACUAGGAGCACCAUUUCGCUGCCAGUGAAGAAAUGAACAAAGAAAAUCUGGGCCAGGCAGGCAUCAAAAGAAACAGUCUUGCGCUCAACCAGAAAGUCAGCAAUCAUUUUAAGGGUA [U9C A11U U19G U97C U122A U124C] | 0.59 |
| GUUAACGGCCUUACGCCAUGGAAACUAGGAGCACCAUUUCGCUGCCAGUGAAGAAAUGAACAAAGAAAAUCUGGGCCAGGCAGGCAUCAAAAGAAAUAGUCUUGCGCUCAACCAGAAAGUCUGUAAUCAUUUUAAGGGUA [U9C A11U G14C] | 1.15 |
| GUUAACGGCCUUAGGCCAUGGAAACUAGGGGCACCAUUUCGCUGCCAGUGAAGAAAUGAACAAAGAAAAUCUGGGCCAGGCAGGCAUCAAAAGAAAUAGUCUUGCGCUCAACCAGAAAGUCUGUAAUCAUUCUAAGGGUA [U9C A11U A30G U132C] | 1.31 |
| GUUAACGGCCUUAGGCCAUGGAAACUAGGAGCACCAUUUCGCUGCCAGCGAAGAAAUGAACAAAGAAAAUCUGGGCCAGGCAGGCAUCAAAAGAAAUAGUCUUGCGCUCAACCAGAAAGUCUGUAAUCAUUUUAAGGGUA [U9C A11U U49C] | 1.43 |
| GUUAACGGCCGUAGGCCAUGGAAACUAGGAGCACCAUUUCGCUGCCAGUGAAGAAAUGAACAAAGAAAAUCUGGGCCAGGCAGGCAUCAAAAGAAAUAGUCUUGCGCUCAACCAGAAAGACUGUAAUCAUUUUAAGGGUA [U9C A11G U120A] | 1.54 |
| GUUAACGGCCAUAGGCCGUGGAAACUAGGAGCACCAUUUCGCUGCCAGUGAGGAAAUGAACAAAGAAAAUCUGGGCCAGGCGGGCAUCAAAAGAAAUAGUCUUGCGCUCAACCAGAAAGUCUGUAAUCAUUUUAAGGGUA [U9C A18G A52G A82G] | 0.64 |
| GUUAACGGCCAUAGGCCGUGGAAACUAGGAGCACCAUUUCGCUGCCAGUGUAGAAAUGAACAAAGAAAAUCUGGGCCAGGCAGGCAUCAAAAGAAAUAGUCUUGCGCUCAACCAGAAAGUCUGUAAUCAUUUUAAGGGUA [U9C A18G A51U] | 1.11 |
| GUUAACGGCCAUAGGCCCUGGAAACUAGGAGCACCAUUUCGCUGCCAGUGAAGAAGUGAACAAAGAAAAUCUGGGCCAGGCGGGCAUCAAAAGAAAUAGUCUUGCGCUCAACCAGAAAGUCUGUAAUCAUUUUAAGGGUA [U9C A18C A56G A82G] | 0.51 |
| GUUAACGGCCUUAGGCCAUGGAAACUAGGAGCACCAUUUCGCUGCCAGUGAAGAAAUGAACAAAGAAAAUCUGGGCCAGGCAGGCAUCAAAAGAAAUAGUCUUGCGCUCAACCAGAGAGUCUGUAAUCAUUUUAAGGGUA [U9C A11U A117G] | 1.9 |
| GUUAACGGCCUUAGGCCAUGGAAACUAGGAGCGCCAUUUCGCUACCAGUGAAGAAAUGAACAAAGAAAAUCUGGGCCAGGCUGGCAUCAAGAGAAAUAGUCUUGCGCUCAACCAGAAAGUCUGUAAUCAUUUUAAGGGUA [U9C A11U A33G G44A A82U A91G] | 0.07 |
| GUUAACGGCCAUAGGCCGUGGAAACUAGGAGCACCAUUUCGCCGCCAGUGGGGAAAUGAACAAAGAAAAUCUGGGCCAGGCAGGCACCAAAAGAAAUAGUCUUGUGCUCAACCAGAAAGUCUGUAAUCAUUUUAAGGGUA [U9C A18G U43C A51G A52G U87C C105U] | 0.12 |
| GUUAACGGCCAUAGGCCGUGGAAACUAGGAGCACCAUUUCGCUGCCAGUGAAGAAAUGAACAAAGAAAAUCUGGGCCAAGCAGGCAUCAAAGGAAAUAGUCUUGCGCUCAGCCAGAAAGCCUGUAAUCAUUUUAAGGGUA [U9C A18G G79A A92G A111G U120C] | 0.01 |
| GUUAACGGCCGUAGGCCAUGGAAACUAGGAGCACCAUUUCGCUGCCAGUGAAGAUAUGAACAAAGAUAAUCUGGGCCAGGCAGGCAUCAAAAGAAAUAGUCUUGCGCUCAACCAGAAAGUCUGUAAUCAUUUUAAGGGUA [U9C A11G A55U A67U] | 0.65 |
| GUUAACGGCCAUCGGCCAUGGAGACUAGGAGCACCAUUUCGCAGCCAGUGAAGAAAUGAACAAAGGAAAUCUGGGCCAGGCAGGCAUCAAAAGAAAUAGCCUUGCGCUCAACCAGAAAGUCUGUAAUCAUUUUAAGGGUU [U9C A13C A23G U43A A66G U100C A140U] | 0.89 |
| GUUAACGGCCAUAGGCCGUGGAAACUAGGAGCACCAUUUCGCUGCCAGUGAAGAAAUGAACAAAGAAAAUCUGGGCCAGGCAGGCAUCAAAAGAAAUAGUCUUGCGCUCAACCAGAAAGUCUGCAAUCAUUUUAAGGGUA [U9C A18G U124C] | 1.3 |
| GUUAACGGCCUUAGGCCAUGGAAACUAGGAGCACCAUUCCGCUGCCAGUGAAGAAAUGAACAAGGAAAAUCUGGGCCAGGCAGGCAUCGAAAGAAAUAGUCCUGCGCUCAACCAGAAAGUCUGUAAUCAUUUUAAGGGUA [U9C A11U U39C A64G A89G U102C] | 1.2 |
| GUUAACGGCCGUAGGGCAUGGAAACUAGGAGCACCAUUUCGCUGCCAGUGAAGAAAUGAACAAAGAAAAUCUGGGCCAGGCAGGCAUCAAAAGAAAUAGUCUUGCGCUCGACCAGAAAGUCUGUAAUCAUUUUAAGGGUA [U9C A11G C16G A110G] | 0.14 |
| GUUAACGGCCAUAGGCCGUGGAAACUAGGAGCACCAUUUCGCUGCCAGUGAAGAAAUGAACAAAGAAAAUCUGGGCCAGGCAGGCGUCAAAAGAAAUAGUCUUGCGCUCAACCAGAAAGUCCGUAAUCAUUUUAAGGGUA [U9C A18G A86G U122C] | 1.55 |
| GUUAACGGCCAUAGGCCUUGGAAACUAGGGGCACCAUUUCGCUGCCAGUGAAGAAAUGAACAAAGAAAAUCUGGGCCAGGCAGGCAUCAAAAGAAAUAGUCUUGCGCUCAACCAGAAAGUCUGUAAUCAUUUUAAGGGUA [U9C A18U A30G] | 1.28 |
